# Reference: the supplement of paper PMC11417369
# ± gives the standard deviation of the averaged measurements. This is one part of the list.
# Tested on: PfAP2-EXP AP2 domain (GST-tagged)
# Test: gcPBM binding intensity (ln(normalized median fluorescence intensity)); higher = stronger DNA binding
# In short: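 The binding buffer was 1× PBS containing 1% milk, 0.2 mg/ml BSA, 0.5% salmon testes DNA and 0.03% Triton X-100. In it, GST-tagged P. falciparum DNA-binding domains expressed in E. coli were applied for 1 h to an Agilent 4 × 180k array of primer-extended double-stranded 36-bp intergenic genomic probes plus negative controls. Binding intensity, read with Alexa488 anti-GST antibody and a 488 nm scan, is the highest Masliner-normalised natural-log median intensity across replicate spots of either probe orientation.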
row,Sequence,gcPBM binding intensity (ln)
1,ATAATTATTTTCCCGTGTACTTATTTTTTTCAAGTA [XGTACX_site8843],9.05 ± 0.45
2,ATATAAAATAAAAAAAAAAAAAAAAAAAAAAAAAAA [CACACA_negctrl_site1234],8.06 ± 0.3
3,TAATTAAAAAATGAATAAATGAATAAATAAATAAAT [CACACA_negctrl_site838],8.52 ± 0.35
4,TTAATGTTTGAAAGAGTGCACATAACAAAAAAAAAA [GTGCAC_site9623],9.15 ± 0.15
5,TTTTTGTATCCTTTTAATATTAAATAAAAGGAATGT [CACACA_negctrl_site1468],8.32 ± 0.37
6,CAATAAATAATAAATACATGCAAGTATGAAGATATA [TGCATGCA_site859],9.67 ± 0.4
7,TATATATATTTTAACACACACATATATATATTTATA [CACACA_site2765],8.54 ± 0.38
8,TGTTTGATGGTACACGTACACACCTTGCAAATATTT [CACACA_site888],9.12 ± 0.37
9,AATATAAAATAGAAAAATGAAAAAAAAAAAAAGGGT [CACACA_negctrl_site1263],8.49 ± 0.092
10,AATAAGAATTAAAAATGTACAAAAAAATGTATTTAT [XGTACX_site8005],8.43 ± 0.28
11,AAGTATAAAATATTTTGTACTTAAAAAATTATATGG [XGTACX_site2180],8.45 ± 0.2
12,TTTTTTTTTTTTGGTAGTACATAAATATTTTATGGA [XGTACX_site6851],8.39 ± 0.38
13,CATGTTATATATATATGTACTAAAAATATAATATAA [XGTACX_site1978],8.47 ± 0.28
14,AGTGGGATTTTTAATTGTACATAAATAATATCATAA [XGTACX_site4163],8.39 ± 0.29
15,TGCAGGTGTTATTCACGTACGCATTTGATTAAAAAA [XGTACX_site7743],8.65 ± 0.4
16,TAAAATATACAAATTTGTACATATATATGTATGTAT [XGTACX_site1127],8.83 ± 0.35
17,TAATTTTATATAAATTGTACAAAAATATTTTATTAA [XGTACX_site7166],8.38 ± 0.38
18,ATAAAAACATAAAAATGTACATATATATATATATAT [XGTACX_site7165],10.1 ± 0.25
19,ATTAGAAAATAAAATAATAAATAAAATAAAAAAAAA [CACACA_negctrl_site409],8.25 ± 0.57

row,Sequence,gcPBM binding intensity (ln)
1,ATGTATATGCAAACATGTACATATATAAACATATAT [XGTACX_site4159],8.61 ± 0.36
2,GTGTTGGGAAAAGGCATGCACTTTTTTTTTTTTTTT,8.98 ± 0.25
3,AATATTAGGTTATGTAGTACATAACAATAATTATAC [XGTACX_site5733],8.71 ± 0.3
4,TTTTATTTTATTCAATTTTTACTTTTATAAAAATAT [GTGCAC_negctrl_site578],8.54 ± 0.44
5,ATAAAGAATATAAATACACACTTAAATATATATTAT [CACACA_site6071],8.46 ± 0.39
6,AAGGAATATGTATATACACACAGGTACATATTTATA [CACACA_site6344],8.71 ± 0.3
7,CACAAAAATTTATACACACACATATAAAATATAGAT [CACACA_site6218],8.5 ± 0.34
8,AGTTATTACACACAAACATGCATTAATATCAAAAAA [TGCATGCA_site63],8.59 ± 0.35
9,TTCACTATACAAAGGTGTACTTAATTTTGTCCCATT [XGTACX_site7483],8.6 ± 0.33
10,AAATATATATATAGTACATGCAGTAGATAATTTAAT [TGCATGCA_site299],9.4 ± 0.19
11,AATTCACATGTGAACTAAAAGAATATTATATATATA [CACACA_negctrl_site1632],9.055 ± 0.049
12,ATTAGGTATTTTTTTTGTACATATTATATAATGTGA [XGTACX_site3815],8.65 ± 0.4
13,AATGATCAGATATACACACACACAAAAAAAAAAAAA [CACACA_site7806],8.34 ± 0.59
14,GTAAATAAATAAATAAATAAATATATATATATATAT [CACACA_negctrl_site1737],10 ± 0.42
15,AATAAAAAAAAATTCACACAAAGTTAGATTAACTAT [CACACA_site4224],8.23 ± 0.54
16,TATCCTTATATTTGCACACACACACCCTAAAATGAA [CACACA_site1029],9.06 ± 0.19
17,TTTATATTTAAAAGGATGCACTACAAATTCTAAATA,8.38 ± 0.28
18,AAAACAAACAGACACACACACATATTTATATTTATA [CACACA_site7681],8.55 ± 0.46
19,TTATATTAAACAAACACACACATATAAATATAAATA [CACACA_site7174],8.82 ± 0.42

row,Sequence,gcPBM binding intensity (ln)
1,CTACAATATCTTTAAAGTACTTTTATATAACTACCA [XGTACX_site6119],8.63 ± 0.35
2,AAGACAAATATGAAGAGTACATTTATATAAAAATTA [XGTACX_site5142],8.62 ± 0.51
3,ATTTTTTCCAATTCTTTACCTTAGAAAGGTGTTCAA [CACACA_negctrl_site1401],8.51 ± 0.52
4,ATATATTTTTATGTAGTGCATTTAAATAATAAATGC,8.45 ± 0.11
5,ATTCTAAATAAATGTACACACAAAAATAAATGTATA [CACACA_site1732],8.61 ± 0.31
6,ACCTCATAATATTTAACACACAAAATTATATGTATG [CACACA_site1704],8.65 ± 0.33
7,ATATATATATAATGAAGTACGAAAAAATAAGAAATG [XGTACX_site4001],9.53 ± 0.028
8,TTTTTTTTTTTAAGTTCACACATAAATTCGATTTAC [CACACA_site5057],8.4 ± 0.4
9,ACCGTTTTTGTGTAATGTACAAAATTTCTGACAGTG [XGTACX_site4999],8.7 ± 0.4
10,AAAGGAAAATTAAAAAGTACACATTTGAAAAAAAAA [XGTACX_site2724],8.53 ± 0.28
11,ATAATTTGTAAAAGGAGTACAAAACCATACTTTTTT [XGTACX_site6076],8.4 ± 0.19
12,ATGTATTTAATAAGAACACACATATATTTAATTTAA [CACACA_site5606],8.22 ± 0.47
13,TTTATACATTTATATTGTACTAATTCGATTTTATAT [XGTACX_site5424],8.55 ± 0.32
14,AATGATCATATATACACACACACAAAAAAAAAAAAA [CACACA_site4009],8.32 ± 0.49
15,AAAGAAAAAGAAAAAGAAAAATTAGAATATAAAATA [CACACA_negctrl_site792],8.22 ± 0.57
16,ATAAGAAATGTAACTTGTACATAAGGATATATATTT [XGTACX_site236],8.59 ± 0.35
17,CATTTATATAAATACACACACACAAAAAAAAAAAAA [CACACA_site5459],8.3 ± 0.6
18,TAATAATAAAAAAATAGTACATAAATAAAAATAATA [XGTACX_site4774],8.61 ± 0.38
19,ATTTATAAAATTAATGCACACATCAGCATTTATAAA [CACACA_site1025],8.72 ± 0.24
